# Results published in PubChem BioAssay AID1671193 (National Center for Advancing Translational Sciences (NCATS), 2021).
# The campaign covered roughly 150,000 compounds. About 180 (0.12%) were called active. Inconclusive means that the source gave no clear call. Such entries were picked first, then a sample of the others. The call rests on the fitted dose curve; in most records, active means well fitted cell-killing curve with a large enough effect; inconclusive means small, poorly fitted or top-dose-only effect, or effect the other way; inactive means flat fitted curve, though single readings scatter. A potency beside an inconclusive call is a rough fit, not a confirmed value.
# Assay: GF-AFC viability counterscreen for inhibitors of alpha-synuclein gene (SNCA) expression; further: nearly all actives have a fitted effect of over 30% in size;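 on activity change, negative = cytotoxicity: 0% = DMSO-treated cells and -100% = medium-only wells without cells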
# Conditions: HEK-293-SNCA-luc viability, GF-AFC fluorescence, 24 h; activity change, negative = cytotoxicity: at 57.1 µM (top of the series) unless noted
# Summary of the method: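 HEK-293-SNCA-luc cells (1500/well) plated 24 h, then exposed 24 h to a dilution series; GF-AFC added 30 min at 37C, fluorescence 405/540 nm; normalised to medium-only and DMSO wells, Hill fit.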
# Potency means the concentration at half of the fitted maximal effect; tags describe the fitted curve by direction and shape.
SMILES,Potency,"activity change, negative = cytotoxicity"
Cc1ccc(C)c(N(C)S(=O)(=O)c2ccc3[nH]cc(C(=O)NC4CCCC4)c(=O)c3c2)c1,"inconclusive: 39.8 µM [cytotoxic, single point]",–
O=C(NC1CCCCCC1)c1nc2sccn2c1-c1cccc(C(F)(F)F)c1,–,inactive: -2.11%
COCCNc1ncnc2c1CN(C1CCNC1)C(=O)CN2C (stereo unspecified),–,inactive: 15.3%
COc1ccc(NC(=O)Cn2cc(C(=O)c3cccs3)c3ccccc32)cc1,"inconclusive: 1.41 µM [cytotoxic, full curve, poor fit]",–
Cn1cc(-c2nc3cnc(N4CCNCC4)nc3n(CCC#N)c2=O)c2ccccc21,"inconclusive: 39.8 µM [rising, single point]",–
Nc1ccsc1C(=O)N[C@H](Cc1ccncc1)C1CC(O)C1 (stereo partly specified),–,inactive: -1.12%
O=C(NCCc1ccccc1)c1ccc(CSc2nc3ccncc3n2Cc2cccc(F)c2)cc1,"inconclusive: 28.2 µM [cytotoxic, partial curve, poor fit]",–
CCCCC(C=O)NC(=O)C(CC(C)C)NC(=O)OCc1ccccc1 (stereo unspecified),"inconclusive: 21.5 µM [cytotoxic, partial curve]",–
O=S(=O)(NCCc1nnc2ccc(SCc3c(F)cccc3Cl)nn12)c1ccccc1,"inconclusive: 31.6 µM [cytotoxic, single point]",–
Cc1ccc(C)c(CN2C(=O)NC3(CCN(C(=O)Cc4cccc(F)c4)CC3)C2=O)c1,–,inactive: 1.86%
COc1ccc(Nc2ccnc(N3CCCC(C(=O)NCc4cccc(OC)c4)C3)n2)cc1 (stereo unspecified),"inconclusive: 39.8 µM [cytotoxic, single point]",–
O=C(CN1C(=O)NC2(CCOCC2)C1=O)Nc1ccc(Cl)cc1,"inconclusive: 4.47 µM [rising, single point]",–
N#CC1=C2SCN(C3CCCCC3)CN2C(=O)CC1c1ccc(F)cc1 (stereo unspecified),"inconclusive: 31.6 µM [cytotoxic, partial curve, poor fit]",–
Cc1noc(-c2ccc(OC3CN(C(=O)NCc4ccc(F)cc4)C3)cc2)n1,"inconclusive: 2.24 µM [cytotoxic, full curve]",–
C1=C/COCc2cc(ccc2OCCN2CCCC2)Nc2nccc(n2)-c2cccc(c2)COC/1,active: 9.47 µM,–
COc1ncc2nc(C)c(=O)n(CCc3ccccc3)c2n1,"inconclusive: 39.8 µM [cytotoxic, single point]",–
O=C(C1CCCC1)N1CC2(CCCN(Cc3c[nH]c4ccccc34)C2)Cc2ccccc21 (stereo unspecified),"inconclusive: 31.6 µM [cytotoxic, partial curve, poor fit]",–
COc1c(C)cccc1C(=O)N1CCC2(CC1)Nc1ccccc1NC2=O,"inconclusive: 39.8 µM [cytotoxic, single point]",–
COc1ccccc1-c1cccc(CN2CCC(NC(=O)Nc3ccccc3)CC2)c1,–,inactive: -2.89%
COc1ccc(-c2noc(CC3CCN(C(=O)c4ccc(OC)c(OC)c4)CC3)n2)cc1,"inconclusive: 10 µM [cytotoxic, partial curve, poor fit]",–
CN1Cc2cccn2CC1CNC(=O)c1cnn(C)c1 (stereo unspecified),–,inactive: -2.17%

SMILES,Potency,"activity change, negative = cytotoxicity"
COC(=O)c1c(NC(=O)COc2ccc(OC)cc2)sc2c1CCC(C)C2 (stereo unspecified),"inconclusive: 11.2 µM [cytotoxic, partial curve, poor fit]",–
CC1(COc2ccccc2)COc2ccc(C(=O)NCc3cccnc3)cc2N1 (stereo unspecified),–,inactive: 3.79% [at 87.6 µM]
Cc1ccc(CNS(=O)(=O)c2c(C(=O)N3CCC(C)CC3)c(C)n(C)c2C)cc1,"inconclusive: 20 µM [cytotoxic, partial curve, poor fit]",–
COC(=O)c1ccccc1NC(=O)N(Cc1ccc(C)cc1)Cc1cccn1-c1nnc(N2CCCC2=O)s1,"inconclusive: 0.447 µM [rising, full curve, poor fit]",–
CN(C)C(=O)NC1CCCN(Cc2ccc(-c3cncnc3)cc2)C1 (stereo unspecified),–,inactive: 14.8% [at 12.5 µM]
O=C(c1ccco1)N1CCN(C(=O)N2CC3CC(C2)[C@H]2CCCC(=O)N2C3)CC1 (stereo partly specified),"inconclusive: 3.55 µM [cytotoxic, full curve, poor fit]",–
COc1ccc(C(=O)N2CCC(CCn3c(C)cnc3-c3cccnc3)CC2)cc1,–,inactive: -1.64%
CC1=C[C@@H](CNCc2ccncc2)[C@H](C(C)C)C[C@H]1Cc1nnc(-c2ccc([N+](=O)[O-])cc2)o1,"inconclusive: 28.2 µM [cytotoxic, single point]",–
O=C1NC(=O)C(c2ccccc2)(c2ccccc2)N1,"inconclusive: 39.8 µM [cytotoxic, single point]",–
O=C(NCc1ccc(-c2cnc3c(Oc4ccccc4)nccn23)cc1)c1ccn[nH]1,–,inactive: 2.49% [at 87.6 µM]
Cc1nc(C)c(C(=O)N2CCC(c3noc(-c4ccccn4)n3)C2)s1 (stereo unspecified),–,inactive: 11.7%
COc1ccc(-c2cc(C(F)(F)F)nc(SCC(=O)Nc3ccc(C(C)=O)cc3)n2)cc1,"inconclusive: 12.6 µM [cytotoxic, partial curve]",–
Cc1cc(OCC(=O)Nc2ncn[nH]2)c(C)c(C)c1Br,"inconclusive: 0.355 µM [rising, full curve]",–
Cc1cc(C)n(CCC(=O)N2CC(Oc3ccc(-c4nc(-c5ccccc5)no4)cc3)C2)n1,"inconclusive: 11.2 µM [cytotoxic, partial curve, poor fit]",–
COc1cccc(S(=O)(=O)NCC(=O)N2CCCCCNC(=O)CC2c2ccccc2)c1 (stereo unspecified),–,inactive: -20.4%
CN(C)c1ccc(CN2CC[C@H](c3nc4ccc(C(F)(F)F)cc4[nH]3)C2)cc1,"inconclusive: 50.1 µM [cytotoxic, partial curve, poor fit]",–
COc1cccc(S(=O)(=O)N2CCCCCCNC(=O)[C@@H]3CCCC[C@@H]32)c1,"inconclusive: 7.94 µM [cytotoxic, full curve, poor fit]",–
Cc1ccc(C(=O)N2CCC(N3CC4(CCCC4)C3c3ccccc3)CC2)cn1 (stereo unspecified),–,inactive: 2.26%
Cc1ccc(-c2c(C)n3c4c(=O)n(C)c(=O)n(C)c4nc3n2CCCO)cc1,"inconclusive: 39.8 µM [cytotoxic, single point]",–
CN(Cc1ccc(F)cc1)C(=O)c1cn(Cc2ccccc2C(F)(F)F)nn1,"inconclusive: 11.2 µM [cytotoxic, partial curve, poor fit]",–
